# Assay results published in the supplement of paper PMC8728848.
# The other results are listed elsewhere or left out.
# B1: TIM1 (protein)
# chain: ADGIQSVKVGGEAGPSVTLPCHYSGAVTSMCWNRGSCSLFTCQNGIVWTNGTHVTYRKDTRYKLLGDLSRRDVSLTIENTAVSDSGVYCCRVEHRGWFNDMKITVSLEIVPPHHHHHH
# Assays:
# Experiment in all cases: glycan array binding signal (z-score within array); higher = stronger binding
# Details in all cases: glycan notation: IUPAC condensed, linker removed
# [1] = target: Fuc(a1-2)Gal(b1-4)GlcNAc(b1-3)Gal(b1-4)GlcNAc(b1-3)Gal(b1-4)GlcNAc
# In short: (§1)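 The binding signal is a Z-score computed within each array and averaged over linkers. Arrays of the same protein sequence at different concentrations or buffers were also averaged together. Data originate from 3228 arrays in the Consortium for Functional Glycomics database, kept only where the protein sequence was available.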
# [2] = target: Fuc(a1-2)Gal(b1-4)GlcNAc(b1-3)GalNAc
# In short: as §1
# [3] = target: Fuc(a1-2)Gal(b1-4)GlcNAc(b1-3)[Fuc(a1-2)Gal(b1-4)GlcNAc(b1-6)]GalNAc
# In short: as §1
# [4] = target: Fuc(a1-2)Gal(b1-4)GlcNAc(b1-3)[Fuc(a1-3)[Gal(b1-4)]GlcNAc(b1-6)]Gal(b1-4)Glc
# In short: as §1
# [5] = target: Fuc(a1-2)Gal(b1-4)GlcNAc(b1-6)GalNAc
# In short: as §1
# [6] = target: Fuc(a1-2)Gal(b1-4)GlcNAc6S
# In short: as §1
# [7] = target: Fuc(a1-2)Gal(b1-4)[Fuc(a1-3)]GlcNAc
# In short: as §1
# [8] = target: Fuc(a1-2)Gal(b1-4)[Fuc(a1-3)]GlcNAc(b1-2)Man(a1-3)[Fuc(a1-2)Gal(b1-4)[Fuc(a1-3)]GlcNAc(b1-2)Man(a1-6)]Man(b1-4)GlcNAc(b1-4)[Fuc(a1-6)]GlcNAc
# In short: as §1
# [9] = target: Fuc(a1-2)Gal(b1-4)[Fuc(a1-3)]GlcNAc(b1-2)[Fuc(a1-2)Gal(b1-4)[Fuc(a1-3)]GlcNAc(b1-4)]Man(a1-3)[Fuc(a1-2)Gal(b1-4)[Fuc(a1-3)]GlcNAc(b1-2)Man(a1-6)]Man(b1-4)GlcNAc(b1-4)GlcNAc
# In short: as §1
# [10] = target: Fuc(a1-2)Gal(b1-4)[Fuc(a1-3)]GlcNAc(b1-3)Gal(b1-4)[Fuc(a1-3)]GlcNAc
# In short: as §1
# [11] = target: Fuc(a1-2)Gal(b1-4)[Fuc(a1-3)]GlcNAc(b1-3)Gal(b1-4)[Fuc(a1-3)]GlcNAc(b1-3)Gal(b1-4)[Fuc(a1-3)]GlcNAc
# In short: as §1
# [12] = target: Fuc(a1-2)Gal(b1-4)[Fuc(a1-3)]GlcNAc(b1-3)GalNAc
# In short: as §1
# [13] = target: Fuc(a1-2)Gal(b1-4)[Fuc(a1-3)]GlcNAc(b1-3)[Neu5Ac(a2-6)Gal(b1-4)GlcNAc(b1-6)]Gal(b1-4)Glc
# In short: as §1
# [14] = target: Fuc(a1-2)Gal3S(b1-4)GlcNAc
# In short: as §1
# [15] = target: Fuc(a1-2)Gal6S(b1-3)GlcNAc
# In short: as §1
# [16] = target: Fuc(a1-2)Gal6S(b1-3)GlcNAc6S
# In short: as §1
# Fuc(a1-2)Gal6S(b1-4)Glc = target: Fuc(a1-2)Gal6S(b1-4)Glc
# In short: as §1
# [17] = target: Fuc(a1-2)Gal6S(b1-4)Glc6S
# In short: as §1
# Fuc(a1-2)[Gal(a1-3)]Gal = target: Fuc(a1-2)[Gal(a1-3)]Gal
# In short: as §1
# [18] = target: Fuc(a1-2)[Gal(a1-3)]Gal(b1-3)GalNAc
# In short: as §1
# [19] = target: Fuc(a1-2)[Gal(a1-3)]Gal(b1-3)GalNAc(b1-3)Gal(a1-4)Gal(b1-4)Glc
# In short: as §1
# [20] = target: Fuc(a1-2)[Gal(a1-3)]Gal(b1-3)GlcNAc
# In short: as §1
# [21] = target: Fuc(a1-2)[Gal(a1-3)]Gal(b1-3)GlcNAc(b1-2)Man(a1-3)[Fuc(a1-2)[Gal(a1-3)]Gal(b1-3)GlcNAc(b1-2)Man(a1-6)]Man(b1-4)GlcNAc(b1-4)GlcNAc
# In short: as §1
# [22] = target: Fuc(a1-2)[Gal(a1-3)]Gal(b1-3)GlcNAc(b1-2)Man(a1-3)[Fuc(a1-2)[Gal(a1-3)]Gal(b1-3)GlcNAc(b1-2)Man(a1-6)]Man(b1-4)GlcNAc(b1-4)[Fuc(a1-6)]GlcNAc
# In short: as §1
# [23] = target: Fuc(a1-2)[Gal(a1-3)]Gal(b1-3)GlcNAc(b1-3)GalNAc
# In short: as §1
# [24] = target: Fuc(a1-2)[Gal(a1-3)]Gal(b1-3)GlcNAc(b1-6)GalNAc
# In short: as §1
# [25] = target: Fuc(a1-2)[Gal(a1-3)]Gal(b1-4)Glc
# In short: as §1
# [26] = target: Fuc(a1-2)[Gal(a1-3)]Gal(b1-4)GlcNAc
# In short: as §1
# [27] = target: Fuc(a1-2)[Gal(a1-3)]Gal(b1-4)GlcNAc(b1-2)Man
# In short: as §1
# [28] = target: Fuc(a1-2)[Gal(a1-3)]Gal(b1-4)GlcNAc(b1-2)Man(a1-3)[Fuc(a1-2)[Gal(a1-3)]Gal(b1-4)GlcNAc(b1-2)Man(a1-6)]Man(b1-4)GlcNAc(b1-4)GlcNAc
# In short: as §1
binder,measurement,setting,value
B1,glycan array binding signal (z-score),[1],-0.132
same,glycan array binding signal (z-score),[2],-0.169
same,glycan array binding signal (z-score),[3],-0.134
same,glycan array binding signal (z-score),[4],-0.219
same,glycan array binding signal (z-score),[5],-0.15
same,glycan array binding signal (z-score),[6],-0.102
same,glycan array binding signal (z-score),[7],-0.107
same,glycan array binding signal (z-score),[8],0.121
same,glycan array binding signal (z-score),[9],-0.074
same,glycan array binding signal (z-score),[10],-0.115
same,glycan array binding signal (z-score),[11],-0.198
same,glycan array binding signal (z-score),[12],0.887
same,glycan array binding signal (z-score),[13],-0.276
same,glycan array binding signal (z-score),[14],-0.264
same,glycan array binding signal (z-score),[15],-0.216
same,glycan array binding signal (z-score),[16],1.48
same,glycan array binding signal (z-score),Fuc(a1-2)Gal6S(b1-4)Glc,-0.035
same,glycan array binding signal (z-score),[17],-0.162
same,glycan array binding signal (z-score),Fuc(a1-2)[Gal(a1-3)]Gal,-0.147
same,glycan array binding signal (z-score),[18],-0.248
same,glycan array binding signal (z-score),[19],-0.3
same,glycan array binding signal (z-score),[20],-0.196
same,glycan array binding signal (z-score),[21],-0.219
same,glycan array binding signal (z-score),[22],-0.217
same,glycan array binding signal (z-score),[23],-0.158
same,glycan array binding signal (z-score),[24],-0.148
same,glycan array binding signal (z-score),[25],-0.183
same,glycan array binding signal (z-score),[26],-0.192
same,glycan array binding signal (z-score),[27],-0.225
same,glycan array binding signal (z-score),[28],-0.183
